The supplement of paper PMC12423691
This is one part of the list. Binding of human transcription factors and regulators to the viral nucleoprotein by AlphaScreen, crude cell-free proteins, amounts not normalised, one pass. Fold of the Venus control; higher = more signal. No active / inactive call. Single-pass screen; sequences are the whole Swiss-Prot entries looked up by name.

B1: RXRA, P19793 (protein)
chain: MDTKHFLPLDFSTQVNSSLTSPTGRGSMAAPSLHPSLGPGIGSPGQLHSPISTLSSPINGMGPPFSVISSPMGPHSMSVPTTPTLGFSTGSPQLSSPMNPVSSSEDIKPPLGLNGVLKVPAHPSGNMASFTKHICAICGDRSSGKHYGVYSCEGCKGFFKRTVRKDLTYTCRDNKDCLIDKRQRNRCQYCRYQKCLAMGMKREAVQEERQRGKDRNENEVESTSSANEDMPVERILEAELAVEPKTETYVEANMGLNPSSPNDPVTNICQAADKQLFTLVEWAKRIPHFSELPLDDQVILLRAGWNELLIASFSHRSIAVKDGILLATGLHVHRNSAHSAGVGAIFDRVLTELVSKMRDMQMDKTELGCLRAIVLFNPDSKGLSNPAEVEALREKVYASLEAYCKHKYPEQPGRFAKLLLRLPALRSIGLKCLEHLFFFKLIGDTPIDTFLMEMLEAPHQMT
B2: HIPK2, Q9H2X6 (protein)
chain: MAPVYEGMASHVQVFSPHTLQSSAFCSVKKLKIEPSSNWDMTGYGSHSKVYSQSKNIPLSQPATTTVSTSLPVPNPSLPYEQTIVFPGSTGHIVVTSASSTSVTGQVLGGPHNLMRRSTVSLLDTYQKCGLKRKSEEIENTSSVQIIEEHPPMIQNNASGATVATATTSTATSKNSGSNSEGDYQLVQHEVLCSMTNTYEVLEFLGRGTFGQVVKCWKRGTNEIVAIKILKNHPSYARQGQIEVSILARLSTESADDYNFVRAYECFQHKNHTCLVFEMLEQNLYDFLKQNKFSPLPLKYIRPVLQQVATALMKLKSLGLIHADLKPENIMLVDPSRQPYRVKVIDFGSASHVSKAVCSTYLQSRYYRAPEIILGLPFCEAIDMWSLGCVIAELFLGWPLYPGASEYDQIRYISQTQGLPAEYLLSAGTKTTRFFNRDTDSPYPLWRLKTPDDHEAETGIKSKEARKYIFNCLDDMAQVNMTTDLEGSDMLVEKADRREFIDLLKKMLTIDADKRITPIETLNHPFVTMTHLLDFPHSTHVKSCFQNMEICKRRVNMYDTVNQSKTPFITHVAPSTSTNLTMTFNNQLTTVHNQAPSSTSATISLANPEVSILNYPSTLYQPSAASMAAVAQRSMPLQTGTAQICARPDPFQQALIVCPPGFQGLQASPSKHAGYSVRMENAVPIVTQAPGAQPLQIQPGLLAQQAWPSGTQQILLPPAWQQLTGVATHTSVQHATVIPETMAGTQQLADWRNTHAHGSHYNPIMQQPALLTGHVTLPAAQPLNVGVAHVMRQQPTSTTSSRKSKQHQSSVRNVSTCEVSSSQAISSPQRSKRVKENTPPRCAMVHSSPACSTSVTCGWGDVASSTTRERQRQTIVIPDTPSPTVSVITISSDTDEEEEQKHAPTSTVSKQRKNVISCVTVHDSPYSDSSSNTSPYSVQQRAGHNNANAFDTKGSLENHCTGNPRTIIVPPLKTQASEVLVECDSLVPVNTSHHSSSYKSKSSSNVTSTSGHSSGSSSGAITYRQQRPGPHFQQQQPLNLSQAQQHITTDRTGSHRRQQAYITPTMAQAPYSFPHNSPSHGTVHPHLAAAAAAAHLPTQPHLYTYTAPAALGSTGTVAHLVASQGSARHTVQHTAYPASIVHQVPVSMGPRVLPSPTIHPSQYPAQFAHQTYISASPASTVYTGYPLSPAKVNQYPYI
B3: GRHL3, Q8TE85 (protein)
chain: MSNELDFRSVRLLKNDPVNLQKFSYTSEDEAWKTYLENPLTAATKAMMRVNGDDDSVAALSFLYDYYMGPKEKRILSSSTGGRNDQGKRYYHGMEYETDLTPLESPTHLMKFLTENVSGTPEYPDLLKKNNLMSLEGALPTPGKAAPLPAGPSKLEAGSVDSYLLPTTDMYDNGSLNSLFESIHGVPPTQRWQPDSTFKDDPQESMLFPDILKTSPEPPCPEDYPSLKSDFEYTLGSPKAIHIKSGESPMAYLNKGQFYPVTLRTPAGGKGLALSSNKVKSVVMVVFDNEKVPVEQLRFWKHWHSRQPTAKQRVIDVADCKENFNTVEHIEEVAYNALSFVWNVNEEAKVFIGVNCLSTDFSSQKGVKGVPLNLQIDTYDCGLGTERLVHRAVCQIKIFCDKGAERKMRDDERKQFRRKVKCPDSSNSGVKGCLLSGFRGNETTYLRPETDLETPPVLFIPNVHFSSLQRSGGAAPSAGPSSSNRLPLKRTCSPFTEEFEPLPSKQAKEGDLQRVLLYVRRETEEVFDALMLKTPDLKGLRNAISEKYGFPEENIYKVYKKCKRGETSLLHPRLSRHPPPDCLECSHPVTQVRNMGFGDGFWRQRDLDSNPSPTTVNSLHFTVNSE
B4: CTNNB1, P35222 (protein)
chain: MATQADLMELDMAMEPDRKAAVSHWQQQSYLDSGIHSGATTTAPSLSGKGNPEEEDVDTSQVLYEWEQGFSQSFTQEQVADIDGQYAMTRAQRVRAAMFPETLDEGMQIPSTQFDAAHPTNVQRLAEPSQMLKHAVVNLINYQDDAELATRAIPELTKLLNDEDQVVVNKAAVMVHQLSKKEASRHAIMRSPQMVSAIVRTMQNTNDVETARCTAGTLHNLSHHREGLLAIFKSGGIPALVKMLGSPVDSVLFYAITTLHNLLLHQEGAKMAVRLAGGLQKMVALLNKTNVKFLAITTDCLQILAYGNQESKLIILASGGPQALVNIMRTYTYEKLLWTTSRVLKVLSVCSSNKPAIVEAGGMQALGLHLTDPSQRLVQNCLWTLRNLSDAATKQEGMEGLLGTLVQLLGSDDINVVTCAAGILSNLTCNNYKNKMMVCQVGGIEALVRTVLRAGDREDITEPAICALRHLTSRHQEAEMAQNAVRLHYGLPVVVKLLHPPSHWPLIKATVGLIRNLALCPANHAPLREQGAIPRLVQLLVRAHQDTQRRTSMGGTQQQFVEGVRMEEIVEGCTGALHILARDVHNRIVIRGLNTIPLFVQLLYSPIENIQRVAAGVLCELAQDKEAAEAIEAEGATAPLTELLHSRNEGVATYAAAVLFRMSEDKPQDYKKRLSVELTSSLFRTEPMAWNETADLGLDIGAQGEPLGYRQDDPSYRSFHSGGYGQDALGMDPMMEHEMGGHHPGADYPVDGLPDLGHAQDLMDGLPPGDSNQLAWFDTDL
B5: MITF, O75030 (protein)
chain: MQSESGIVPDFEVGEEFHEEPKTYYELKSQPLKSSSSAEHPGASKPPISSSSMTSRILLRQQLMREQMQEQERREQQQKLQAAQFMQQRVPVSQTPAINVSVPTTLPSATQVPMEVLKVQTHLENPTKYHIQQAQRQQVKQYLSTTLANKHANQVLSLPCPNQPGDHVMPPVPGSSAPNSPMAMLTLNSNCEKEGFYKFEEQNRAESECPGMNTHSRASCMQMDDVIDDIISLESSYNEEILGLMDPALQMANTLPVSGNLIDLYGNQGLPPPGLTISNSCPANLPNIKRELTACIFPTESEARALAKERQKKDNHNLIERRRRFNINDRIKELGTLIPKSNDPDMRWNKGTILKASVDYIRKLQREQQRAKELENRQKKLEHANRHLLLRIQELEMQARAHGLSLIPSTGLCSPDLVNRIIKQEPVLENCSQDLLQHHADLTCTTTLDLTDGTITFNNNLGTGTEANQAYSVPTKMGSKLEDILMDDTLSPVGVTDPLLSSVSPGASKTSSRRSSMSMEETEHTC
B6: ZNF19, P17023 (protein)
chain: MAAMPLKAQYQEMVTFEDVAVHFTKTEWTGLSPAQRALYRSVMLENFGNLTALGYPVPKPALISLLERGDMAWGLEAQDDPPAERTKNVCKDVETNIDSESTLIQGISEERDGMMSHGQLKSVPQRTDFPETRNVEKHQDIPTVKNIQGKVPRIPCARKPFICEECGKSFSYFSYYARHQRIHTGEKPFECSECGKAFNGNSSLIRHQRIHTGERPYQCEECGRAFNDNANLIRHQRIHSGDRPYYCTECGNSFTSSSEFVIHQRIHTGEKPYECNECGKAFVGNSPLLRHQKIHTGEKPYECNECGKSFGRTSHLSQHQRIHTGEKPYSCKVCGQAFNFHTKLTRHQRIHSEEKPFDCVDCGKAFSAQEQLKRHLRIHTQESSYVCDECGKALTSKRNLHQHQRIHTGEKPYECSKYEKAFGTSSQLGHLEHVYSGEKPVLDICRFGLPEFFTPFYW
B7: PCGF6, Q9BYE7 (protein)
chain: MEGVAVVTAGSVGAAKTEGAAALPPPPPVSPPALTPAPAAGEEGPAPLSETGAPGCSGSRPPELEPERSLGRFRGRFEDEDEELEEEEELEEEEEEEEEDMSHFSLRLEGGRQDSEDEEERLINLSELTPYILCSICKGYLIDATTITECLHTFCKSCIVRHFYYSNRCPKCNIVVHQTQPLYNIRLDRQLQDIVYKLVINLEEREKKQMHDFYKERGLEVPKPAVPQPVPSSKGRSKKVLESVFRIPPELDMSLLLEFIGANEGTGHFKPLEKKFVRVSGEATIGHVEKFLRRKMGLDPACQVDIICGDHLLEQYQTLREIRRAIGDAAMQDGLLVLHYGLVVSPLKIT
B8: HEY2, Q9UBP5 (protein)
chain: MKRPCEETTSESDMDETIDVGSENNYSGQSTSSVIRLNSPTTTSQIMARKKRRGIIEKRRRDRINNSLSELRRLVPTAFEKQGSAKLEKAEILQMTVDHLKMLQATGGKGYFDAHALAMDFMSIGFRECLTEVARYLSSVEGLDSSDPLRVRLVSHLSTCATQREAAAMTSSMAHHHHPLHPHHWAAAFHHLPAALLQPNGLHASESTPCRLSTTSEVPPAHGSALLTATFAHADSALRMPSTGSVAPCVPPLSTSLLSLSATVHAAAAAATAAAHSFPLSFAGAFPMLPPNAAAAVAAATAISPPLSVSATSSPQQTSSGTNNKPYRPWGTEVGAF
B9: GATAD2B, Q8WXI9 (protein)
chain: MDRMTEDALRLNLLKRSLDPADERDDVLAKRLKMEGHEAMERLKMLALLKRKDLANLEVPHELPTKQDGSGVKGYEEKLNGNLRPHGDNRTAGRPGKENINDEPVDMSARRSEPERGRLTPSPDIIVLSDNEASSPRSSSRMEERLKAANLEMFKGKGIEERQQLIKQLRDELRLEEARLVLLKKLRQSQLQKENVVQKTPVVQNAASIVQPSPAHVGQQGLSKLPSRPGAQGVEPQNLRTLQGHSVIRSATNTTLPHMLMSQRVIAPNPAQLQGQRGPPKPGLVRTTTPNMNPAINYQPQSSSSVPCQRTTSSAIYMNLASHIQPGTVNRVSSPLPSPSAMTDAANSQAAAKLALRKQLEKTLLEIPPPKPPAPLLHFLPSAANSEFIYMVGLEEVVQSVIDSQGKSCASLLRVEPFVCAQCRTDFTPHWKQEKNGKILCEQCMTSNQKKALKAEHTNRLKNAFVKALQQEQEIEQRLQQQAALSPTTAPAVSSVSKQETIMRHHTLRQAPQPQSSLQRGIPTSARSMLSNFAQAPQLSVPGGLLGMPGVNIAYLNTGIGGHKGPSLADRQREYLLDMIPPRSISQSISGQK

The binders below were run against nucleoprotein N of Crimean-Congo hemorrhagic fever virus (assay: AlphaScreen luminescence signal relative to Venus negative control (fold); higher = stronger binding to CCHFV N).
Method: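 AlphaScreen binding of cell-free made, FLAG-GST-tagged human transcription factors and regulators (crude translation products) to biotinylated N protein; signal as fold of the FLAG-GST-Venus control. One pass.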
For B1, the AlphaScreen luminescence signal was 1.72.
B2 gave an AlphaScreen luminescence signal of 2.09.
B3 gave an AlphaScreen luminescence signal of 1.95.
B4 gave an AlphaScreen luminescence signal of 1.49.
With B5 the AlphaScreen luminescence signal was 2.05.
B6 was tested, and the AlphaScreen luminescence signal was 1.81.
With B7 the AlphaScreen luminescence signal was 1.16.
For B8, the AlphaScreen luminescence signal was 1.63.
With B9 the AlphaScreen luminescence signal was 1.81.
